The whole screen tested about 110,000 compounds, of which about 230 (0.21%) showed an effect of 50% or more. This is one part of the list.
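Note: 30 min substrate incubation versus DMSO and 10 µM JCP410 controls.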

Sequence of DPAP1 (Q8IIJ9 whole entry, looked up): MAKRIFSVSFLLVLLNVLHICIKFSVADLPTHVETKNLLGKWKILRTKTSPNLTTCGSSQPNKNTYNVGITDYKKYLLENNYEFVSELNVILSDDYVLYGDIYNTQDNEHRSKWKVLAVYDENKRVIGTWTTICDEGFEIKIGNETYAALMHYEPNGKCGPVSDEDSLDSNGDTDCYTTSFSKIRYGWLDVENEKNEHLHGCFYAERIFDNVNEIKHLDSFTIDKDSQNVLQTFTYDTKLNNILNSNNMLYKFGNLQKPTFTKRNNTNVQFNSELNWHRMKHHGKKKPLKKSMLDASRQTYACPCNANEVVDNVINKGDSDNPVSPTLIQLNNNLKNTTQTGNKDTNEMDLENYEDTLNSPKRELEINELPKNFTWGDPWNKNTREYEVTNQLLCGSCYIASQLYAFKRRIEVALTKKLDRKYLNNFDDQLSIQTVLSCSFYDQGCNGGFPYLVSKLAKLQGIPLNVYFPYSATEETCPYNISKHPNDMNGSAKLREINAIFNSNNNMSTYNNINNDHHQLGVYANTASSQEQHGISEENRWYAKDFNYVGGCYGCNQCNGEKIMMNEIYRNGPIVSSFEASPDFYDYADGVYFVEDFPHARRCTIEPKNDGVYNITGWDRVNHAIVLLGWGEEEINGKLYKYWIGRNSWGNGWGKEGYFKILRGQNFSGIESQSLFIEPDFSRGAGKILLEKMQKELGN

This assay addresses DPAP1 (Plasmodium falciparum, UniProt Q8IIJ9). Briefly: primary screen, percent inhibition; read by cleavage of a fluorogenic dipeptide substrate; higher = more effect of the substance. Also noted: species or system P. falciparum D10 trophozoite lysates; single well.
In the case of `O=C(Nc1sc2c(c1C(=O)O)CCC2)c1ccc(F)cc1`, the “% Inhibition @ 10 uM” value turned out to be 3.9%.
Regarding `Cc1nc2ncnn2c(O)c1NS(=O)(=O)c1ccc(F)cc1`, the “% Inhibition @ 10 uM” value is given as -5.29%.
Take `O=C(Cn1ccc2ccccc2c1=O)NCCC(=O)NC1CCN(Cc2ccccc2)CC1`: the “% Inhibition @ 10 uM” value was 5.12%.
Then `COc1cc2c(cc1OC)C(c1cccc(Cl)c1Cl)NC(=O)C2` (centres unmarked), with 6.66%; and `COc1ccccc1NC(=O)C(C)c1cccc(C(=O)c2ccccc2)c1` (centres unmarked), with 0.331%.
Regarding `CC(=O)Nc1nonc1-c1nc2ccccc2n1Cc1ccccc1Cl`, the “% Inhibition @ 10 uM” value turned out to be 0.661%.
Turning to `COC(=O)c1ccc(CN(CCN(C)C)Cc2ccccc2)cc1`, the “% Inhibition @ 10 uM” value was -3.8%.
On to `N#CC1=C(N)Oc2[nH]nc(-c3ccc(Cl)c(Cl)c3)c2C1c1ccc2c(c1)OCO2` (centres unmarked), for which the “% Inhibition @ 10 uM” value is on record as 7.01%.
Then `O=C(COc1ccccc1)Nc1cc(C(F)(F)F)cc(C(F)(F)F)c1`, with -6.64%; and `CCOc1cccc(C(=O)Nc2nonc2-c2ccc(OCC)c(OCC)c2)c1`, with -3.24%; and `CCCSc1ncc(Cl)c(C(=O)Nc2nc3ccc(S(C)(=O)=O)cc3s2)n1`, with 1.25%.
Regarding `CCOC(=O)c1ccc(NC=C2C(=O)NC(=S)NC2=O)cc1`, the “% Inhibition @ 10 uM” value is reported as -3.48%.
Turning to `COc1ccccc1OCCNC(=O)c1cccc2ccccc12`, the “% Inhibition @ 10 uM” value was 14.4%.
For the molecule `Cc1c(N)ccc(-n2nc3ccccc3n2)c1C`, the “% Inhibition @ 10 uM” value is given as -3.49%.
`Cc1ccc(-c2noc(-c3ccccc3C)n2)cc1`: the “% Inhibition @ 10 uM” value was -1.47%.
As for `Cc1ccc(C)c(-c2csc(Nc3ccc(Br)cc3)n2)c1`, the “% Inhibition @ 10 uM” value is listed as -2.28%.
Then `COc1cc(/C=C2\SC(Nc3ccc(Br)cc3)=NC2=O)cc(OC)c1O`, with 11.7%; and `O=C(NCCO)c1cc2ccccc2c(=O)s1`, with -5.51%; and `Cc1ccc2c(CNCCc3cccs3)c(C(=O)O)n(Cc3ccc(F)cc3)c2c1`, with -2.39%.
In the case of `CCC(=O)N1c2ccccc2N=C2CC(C)(C)CC(O)=C2C1c1cccnc1` (centres unmarked), the “% Inhibition @ 10 uM” value is recorded as -8.36%.
Take `CCC1C(=O)N=C(SCC(=O)Nc2nc(-c3ccccc3)cs2)NC1=O` (centres unmarked): the “% Inhibition @ 10 uM” value is given as -4.24%.
Then `COc1ccc(N2C(=O)C(O)=C(C(=O)c3ccc(C)cc3)C2c2cc(OC)ccc2OC)cc1` (centres unmarked), with 5.12%; and `Clc1ccc(OCCCCOc2ccc(Cl)cc2)cc1`, with 1.35%; and `CCOCCCNS(=O)(=O)c1c(C)nc2sccn2c1=O`, with -3.74%.
In the case of `CCOc1ccc(C2c3c(-c4ccccc4O)n[nH]c3C(=O)N2Cc2cccnc2)cc1` (centres unmarked), the “% Inhibition @ 10 uM” value is 3.27%.
Turning to `COCCCN1C(=O)C(O)=C(C(=O)c2cccs2)C1c1ccc(F)cc1` (centres unmarked), the “% Inhibition @ 10 uM” value amounted to 0.163%.
In the case of `CC(O)C(=O)NCCOCCOCCNC(=O)C(C)O` (centres unmarked), the “% Inhibition @ 10 uM” value worked out at 5.44%.
Then `CC(c1ccccc1)n1cncc1C(=O)O` (centres unmarked), with 2.22%; and `COc1cc(N(C)C)c(NC(C)=O)cc1C(=O)O`, with -3.16%; and `CC(c1c(N)n(C)c(=O)n(C)c1=O)c1c(N)n(C)c(=O)n(C)c1=O`, with 4.03%.
As for `Clc1ccccc1N1CCN(Cc2ccccc2Br)CC1`, the “% Inhibition @ 10 uM” value is -1.92%.
For `Cc1cc(NC(=O)c2cc(-c3ccccc3F)no2)no1`, the “% Inhibition @ 10 uM” value is -1.78%.
In the case of `Cc1ccsc1CCNC(=O)CCc1nnc2ccc(N3CCC(C)CC3)nn12`, the “% Inhibition @ 10 uM” value was -5.54%.
Regarding `Cc1ccc(NCc2ccncc2)cc1`, the “% Inhibition @ 10 uM” value is on record as -2.15%.
Take `Nc1cccc(C(=O)Nc2cccc(Cl)c2)c1`: the “% Inhibition @ 10 uM” value worked out at 3.81%.
As for `COc1ccc(C2C(C(=O)NCc3cccnc3)c3cc(OC)c(OC)cc3C(=O)N2C)cc1` (centres unmarked), the “% Inhibition @ 10 uM” value was -1.2%.
Consider `CCC(C)C(=O)Nc1ccc(C(C)=O)cc1` (centres unmarked), for which the “% Inhibition @ 10 uM” value is reported as -1.38%.
With `COCC(C)NC1CCN(C(C)=O)CC1` (centres unmarked), the “% Inhibition @ 10 uM” value is listed as 0.0657%.
With `CC(Sc1nc(-c2ccccc2)cc(C(F)(F)F)n1)C(=O)NCc1ccco1` (centres unmarked), the “% Inhibition @ 10 uM” value came to 5.65%.
In the case of `O=C(Cc1ccccc1F)Nc1nc2ccccc2s1`, the “% Inhibition @ 10 uM” value is on record as 1.64%.
Turning to `CCOc1cccc2sc(N(CCN(C)C)C(=O)c3ccc(C(C)=O)cc3)nc12`, the “% Inhibition @ 10 uM” value is listed as -9.48%.
Regarding `COc1ccc(C(=O)/N=C(/NC(=O)c2ccc(OC)cc2)Nc2nc3ccccc3s2)cc1`, the “% Inhibition @ 10 uM” value came out at 0.146%.
As to `COc1ccc(-c2nc(N3CCC(C)CC3)nc3nn4c(C)cc(C)nc4c23)cc1`, the “% Inhibition @ 10 uM” value worked out at 4.02%.
Then `Cc1[nH]c(SCC(=O)Nc2nc3c(s2)CCCC3)nc1Cc1ccc(O)cc1`, with 4.24%; and `Cn1cnc2c(NCc3ccco3)ncnc21`, with 0.221%; and `CCOC(=O)c1c(-c2ccc(Cl)cc2)nn2c1NCN(Cc1cc(OC)ccc1OC)C2`, with -1.08%.
In the case of `CCOc1c(Cl)cc(C(=O)Nc2cccc(C(=O)O)c2)cc1Cl`, the “% Inhibition @ 10 uM” value turned out to be 5.44%.
For `COc1ccc(CCNc2oc(COc3ccccc3)nc2C#N)cc1`, the “% Inhibition @ 10 uM” value is -5.63%.
As to `CC(=O)c1cccc(NC(=O)c2c(-c3ccccc3Cl)noc2C)c1`, the “% Inhibition @ 10 uM” value is reported as -7%.
As to `Brc1ccc(CN2CCN(c3ccccn3)CC2)s1`, the “% Inhibition @ 10 uM” value is reported as -8.39%.
For `O=C1CC(=O)N(c2ccc(F)cc2)C(=O)N1`, the “% Inhibition @ 10 uM” value is -2.18%.
In the case of `CC(C)(C)c1ccc(OCCCN2CCOCC2)cc1`, the “% Inhibition @ 10 uM” value was determined as 1.35%.
Take `O=S(=O)(c1ccc(-c2csc(Nc3ccc(Cl)cc3)n2)cc1)N1CCCCC1`: the “% Inhibition @ 10 uM” value is recorded as -4.46%.
In the case of `O=C(c1cnn(-c2ccccc2)c1-n1cccc1)N1CCN(c2ccccn2)CC1`, the “% Inhibition @ 10 uM” value amounted to 6.46%.
Turning to `CCCCCC1CCC(c2ccc(-c3nc(-c4ccc(C5CCC(CCC)CC5)cc4)no3)cc2)CC1` (centres unmarked), the “% Inhibition @ 10 uM” value is recorded as -5.96%.
Consider `Cc1nn(-c2cc(Oc3ccccc3)nc(-c3ccccc3)n2)c(N)c1C#N`, for which the “% Inhibition @ 10 uM” value is listed as 0.851%.
As to `CCOC(=O)c1c(C)[nH]c(C(=O)CSc2ccccc2)c1C`, the “% Inhibition @ 10 uM” value is recorded as -9.24%.
For the molecule `O=C(CCc1cn(Cc2ccc(Cl)cc2)c2ccccc12)NCCCN1CCOCC1`, the “% Inhibition @ 10 uM” value is recorded as -4.34%.
Take `CCOC(=O)C1CCCCN1C1CCN(Cc2ccccc2)CC1` (centres unmarked): the “% Inhibition @ 10 uM” value came to 3.19%.
Take `CC(C)CCNC(=O)C(=O)NCc1ccc2c(c1)OCO2`: the “% Inhibition @ 10 uM” value is on record as -5.01%.
For `Cc1cc(C(=O)NCCCSC2CCCCC2)n(-c2ccccc2)n1`, the “% Inhibition @ 10 uM” value is reported as 3.19%.
In the case of `CC1=C(C(=O)Nc2cccc(C)n2)C(c2ccccc2C(F)(F)F)C2=C(O)CC(C)(C)CC2=N1` (centres unmarked), the “% Inhibition @ 10 uM” value was -6.6%.
In the case of `CC(C)CCNC(=O)C(NS(=O)(=O)c1cccc2nsnc12)C(C)C` (centres unmarked), the “% Inhibition @ 10 uM” value is given as -0.685%.
As for `COc1ccc(Cl)cc1NC(=O)CN(C)S(=O)(=O)c1ccc(OC)c(OC)c1`, the “% Inhibition @ 10 uM” value is recorded as -2.29%.
Turning to `Fc1ccc(CSc2nc(NCc3ccco3)c3ccccc3n2)cc1`, the “% Inhibition @ 10 uM” value is -7.41%.

The record behind these values is PMC6919601, “Identification of Plasmodium dipeptidyl aminopeptidase allosteric inhibitors by high throughput screening” (PLoS ONE, 2019).
